Measured values from the supplement of paper PMC7826260.
The list shows a part of the results. The data describe in vitro nicking of single-stranded DNA by Rep domains for 1 h at 37 °C with 3 µM enzyme; only the middle of the 90-letter strands is printed. Values are log2 of uncut reads against the no-enzyme pool; uncut sequences lie near 0, cut ones below; no hit call is given. Shares of all reads are compared, so uncut sequences can rise above 0 when many others are cut.

Tests used:
Experiment in all cases: uncleaved DNA left, log2 of reads against the no-enzyme library (log2 ratio); higher = less cleavage (more negative = more Rep cleavage of the k-mer); sequences stand for … in CTCGTCCG…ACCGGAGA
[1] = test system: T1, Rep nickase domain of Muscovy duck circovirus
T1 sequence (residues 1-111, tag not shown): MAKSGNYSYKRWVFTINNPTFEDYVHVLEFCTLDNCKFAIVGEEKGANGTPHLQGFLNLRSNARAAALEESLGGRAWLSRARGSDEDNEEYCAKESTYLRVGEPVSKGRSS
Experimental: (§1)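 A pool of 90-nt single-stranded DNAs with seven random bases just before the constant AC of the nick site (name = the seven bases) was cut by 3 µM recombinant His6-SUMO-tagged Rep nickase domain (300 nM DNA, 50 mM HEPES pH 8.0, 50 mM NaCl, 1 mM MnCl2, 1 h, 37 °C, three replicates). Uncut DNA was amplified and sequenced.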

[2] = test system: T2, Rep nickase domain of banana bunchy top virus
T2 sequence (residues 1-94, tag not shown): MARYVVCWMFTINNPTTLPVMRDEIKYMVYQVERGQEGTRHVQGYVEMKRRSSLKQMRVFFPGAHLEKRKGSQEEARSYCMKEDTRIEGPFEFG
Experimental: as §1

[3] = test system: T3, Rep nickase domain of cabbage leaf curl virus
T3 sequence (residues 1-116, tag not shown): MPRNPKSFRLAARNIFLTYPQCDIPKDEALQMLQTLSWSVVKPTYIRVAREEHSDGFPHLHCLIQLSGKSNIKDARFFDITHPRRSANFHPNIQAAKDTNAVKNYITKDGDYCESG
Experimental: as §1

[4] = test system: T4, Rep nickase domain of chickpea chlorotic dwarf virus
T4 sequence (residues 1-124, tag not shown): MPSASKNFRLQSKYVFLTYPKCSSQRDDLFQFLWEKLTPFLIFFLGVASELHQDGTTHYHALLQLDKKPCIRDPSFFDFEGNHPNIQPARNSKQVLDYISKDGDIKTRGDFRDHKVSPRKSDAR
Experimental: as §1

[5] = test system: T5, Rep nickase domain of faba bean necrotic yellows virus
T5 sequence (residues 1-98, tag not shown): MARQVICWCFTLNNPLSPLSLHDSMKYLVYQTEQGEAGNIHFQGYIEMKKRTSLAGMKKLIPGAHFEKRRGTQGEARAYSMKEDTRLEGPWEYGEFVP
Experimental: as §1

[6] = test system: T6, Rep nickase domain of maize striate mosaic virus
T6 sequence (residues 1-117, tag not shown): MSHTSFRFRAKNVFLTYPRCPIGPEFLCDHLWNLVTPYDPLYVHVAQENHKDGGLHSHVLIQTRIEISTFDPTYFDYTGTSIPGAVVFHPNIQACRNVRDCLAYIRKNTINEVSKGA
Experimental: as §1

[7] = test system: T7, Rep nickase domain of porcine circovirus 2
T7 sequence (residues 2-116, tag not shown): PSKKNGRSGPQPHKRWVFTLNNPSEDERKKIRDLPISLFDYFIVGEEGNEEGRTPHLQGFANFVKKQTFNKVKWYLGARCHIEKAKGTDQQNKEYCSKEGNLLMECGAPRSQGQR
Experimental: as §1

[8] = test system: T8, Rep nickase domain of tomato golden mosaic virus
T8 sequence (residues 1-124, tag not shown): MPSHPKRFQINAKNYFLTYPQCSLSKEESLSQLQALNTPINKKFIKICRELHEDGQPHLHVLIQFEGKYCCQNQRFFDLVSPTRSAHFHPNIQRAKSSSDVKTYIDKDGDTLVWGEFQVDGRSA
Experimental: as §1

[9] = test system: T9, Rep nickase domain of tomato yellow leaf curl virus
T9 sequence (residues 1-136, tag not shown): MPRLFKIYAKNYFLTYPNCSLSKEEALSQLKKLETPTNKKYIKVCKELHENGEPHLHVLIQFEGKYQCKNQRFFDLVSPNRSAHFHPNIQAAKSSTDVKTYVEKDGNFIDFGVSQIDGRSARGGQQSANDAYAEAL
Experimental: as §1

[10] = test system: T10, Rep nickase domain of wheat dwarf virus
T10 sequence (residues 1-137, tag not shown): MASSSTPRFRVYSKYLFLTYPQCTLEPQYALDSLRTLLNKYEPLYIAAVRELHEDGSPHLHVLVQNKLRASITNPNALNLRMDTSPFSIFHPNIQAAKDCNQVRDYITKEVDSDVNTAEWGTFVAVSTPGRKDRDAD
Experimental: as §1

Row | Sequence | uncleaved DNA left (log2) [1] | uncleaved DNA left (log2) [2] | uncleaved DNA left (log2) [3] | uncleaved DNA left (log2) [4] | uncleaved DNA left (log2) [5] | uncleaved DNA left (log2) [6] | uncleaved DNA left (log2) [7] | uncleaved DNA left (log2) [8] | uncleaved DNA left (log2) [9] | uncleaved DNA left (log2) [10]
1 | CCTGTCC | 0.0462 | 0.0316 | 0.0663 | -0.131 | 0.0605 | -0.147 | 0.0359 | 0.0211 | -0.0977 | -0.0807
2 | GTCTCGT | -0.0836 | -0.0313 | 0.226 | 0.658 | -0.0234 | 1.64 | 0.0419 | 0.0802 | 0.07 | -0.0362
3 | AAGGCAC | 0.0426 | 0.0624 | -0.0492 | 0.23 | 0.00761 | 0.0153 | 0.0563 | -0.0208 | 0.00281 | 0.0147
4 | CGAAGGT | 0.0982 | -0.0107 | 0.185 | 0.941 | -0.0875 | 1.58 | 0.125 | -0.0618 | -0.0463 | 0.0587
5 | GCGCAGC | 0.0304 | 0.158 | 0.161 | 0.587 | -0.0844 | 0.535 | 0.12 | 0.0275 | 0.0454 | -0.00919
6 | CCTGTGA | -0.00738 | -0.0367 | -0.328 | -0.683 | 0.0788 | -1.01 | 0.00737 | -0.185 | -0.024 | -0.134
7 | TCCTTCC | -0.0214 | -0.0161 | 0.147 | -0.168 | 0.0283 | -0.402 | 0.0165 | -0.158 | -0.0491 | -0.0875
8 | CTGGGCA | 0.183 | 0.00298 | 0.416 | 0.805 | 0.0124 | 0.559 | 0.104 | -0.0139 | -0.0941 | 0.0113
9 | GCAACAT | 0.0797 | 0.132 | 0.741 | 1.66 | -0.00216 | 1.77 | 0.172 | 0.0269 | 0.0794 | 0.188
10 | TATTTTT | -3.79 | -3.6 | -3.12 | -3.23 | -0.92 | -0.612 | -3.85 | -1.59 | 0.0944 | -2.27
11 | AGAGCGG | 0.0878 | 0.118 | 0.0332 | 0.463 | 0.131 | 0.53 | 0.1 | 0.13 | -0.177 | 0.0418
12 | ACACAAG | -0.0132 | -0.0497 | -0.586 | 0.313 | 0.0267 | -0.526 | 0.251 | -0.0738 | 0.089 | -0.00841
13 | GCGGTAA | -0.0988 | 0.135 | 0.345 | 0.794 | -0.0827 | 1.11 | 0.093 | 0.116 | -0.0355 | 0.051
14 | CAGCAAC | 0.0571 | -0.058 | -0.11 | -1.43 | 0.0522 | -0.684 | -0.156 | 0.0283 | -0.0814 | 0.0515
15 | GGCTACA | -0.0879 | 0.0463 | 0.492 | 0.849 | -0.00149 | 1.76 | -0.0232 | 0.0529 | 0.0669 | 0.0618
16 | AGGACAA | 0.22 | 0.293 | 1.03 | 2.26 | 0.171 | 2.33 | 0.407 | 0.169 | 0.2 | 0.306
17 | ACAGCGA | -0.0603 | -0.186 | -0.322 | 0.839 | -0.0331 | 0.177 | 0.0632 | 0.0354 | 0.0492 | -0.189
18 | GAAGTCA | 0.0612 | 0.00114 | 0.191 | -0.0908 | -0.0526 | 0.724 | 0.0361 | -0.0794 | 0.0552 | 0.00702
19 | TTCGTTT | 0.00876 | -0.0231 | 0.0158 | -1.6 | 0.0785 | -0.108 | -0.106 | -0.0103 | 0.0094 | -0.0873
20 | GGTTTGA | -0.0113 | 0.0145 | 0.292 | 0.866 | -0.0721 | 1.47 | -0.00116 | 0.0105 | 0.0335 | 0.135
21 | AACAGGT | -0.00903 | 0.0683 | 0.325 | 1.04 | 0.0716 | 1.27 | 0.0464 | -0.0147 | -0.0179 | 0.000686
22 | CTCATAG | 0.129 | 0.0645 | -0.789 | -0.22 | 0.219 | -1.09 | 0.198 | 0.174 | 0.213 | 0.0123
23 | CAATGAG | 0.0313 | -0.000467 | -0.737 | 0.199 | 0.0694 | -0.743 | 0.0814 | -0.151 | 0.13 | -0.189
24 | GATTTTG | -0.000314 | 0.117 | -0.154 | -0.278 | 0.0921 | -1.02 | 0.103 | 0.011 | 0.00271 | -0.0764
25 | TGCGCAA | 0.0624 | 0.114 | -0.08 | -0.0331 | -0.0586 | -0.499 | 0.126 | 0.123 | -0.00482 | 0.061
26 | CAGAAGC | 0.116 | 0.139 | -0.25 | -0.561 | 0.12 | -1.1 | 0.0715 | 0.0302 | 0.157 | 0.0427
27 | CGCGACC | -0.205 | -0.176 | -0.16 | 0.247 | -0.109 | -0.538 | -0.159 | -0.0358 | -0.123 | -0.179
28 | GCCTCAG | -0.0545 | -0.158 | -0.387 | -0.384 | -0.146 | -0.896 | 0.0813 | -0.0421 | -0.0711 | -0.0806
29 | ATGGCGA | 0.0997 | -0.0958 | -0.646 | 0.201 | 0.0462 | -0.648 | 0.154 | 0.00802 | 0.078 | -0.103
